In one assay the test system is Proteus mirabilis L 93. In words: microbe, parasite or virus in culture. The note with it: L93, 24 h.
Another assay deals with Proteus mirabilis L93. The experiment in a line: micro serial dilution test, MIC. Format: cell-based. The note with it: micro serial dilution (between brackets), 30°C or 37°C, about 18 hours.

The values that follow come from patent US3945994A, “Novel acid compounds” (Gist-Brocades N.V., priority 1973, dated 1976).

The structures appear in SMILES notation. In brackets after ≈: the same amount, converted by molar mass.

Compound `CC(C)NS(=O)(=O)NC(=O)N[C@@H](C(=O)N[C@@H]1C(=O)N2[C@@H]1SC(C)(C)[C@@H]2C(=O)O)c1ccccc1` [IX, D-6-[α-{3-(isopropylaminosulfonyl)-ureido}-benzylcarbonamido]-penicillanic acid] returned an MIC against Proteus mirabilis L 93 of 0.75 µg/mL (≈ 1.46 µM).
With `CCOS(=O)(=O)NC(=O)N[C@@H](C(=O)N[C@@H]1C(=O)N2[C@@H]1SC(C)(C)[C@@H]2C(=O)O)c1ccccc1` [VI, D-6-[α-{3-(ethoxysulfonyl)-ureido}-benzylcarbonamido]-penicillanic acid], in the assay on Proteus mirabilis L 93, the MIC amounted to 1.5 µg/mL (≈ 3 µM).
For `CC1(C)S[C@@H]2[C@H](NC(=O)[C@H](NC(=O)NS(=O)(=O)Nc3ccccc3)c3ccccc3)C(=O)N2[C@H]1C(=O)O` [VII, D-6-[α-{3-(phenylaminosulfonyl)-ureido}-benzylcarbonamido]-penicillanic acid], the MIC against Proteus mirabilis L 93 is 1.5 µg/mL (≈ 2.74 µM).
In the case of `CCOC(=O)CNS(=O)(=O)NC(=O)N[C@@H](C(=O)N[C@@H]1C(=O)N2[C@@H]1SC(C)(C)[C@@H]2C(=O)O)c1ccccc1` [X, D-6-[α-{3-(ethoxycarbonylmethylaminosulfonyl)-ureido}-benzylcarbonamido]-penicillanic acid], in the assay on Proteus mirabilis L 93, the MIC was below 0.75 µg/mL.
`CC1(C)S[C@@H]2[C@H](NC(=O)[C@H](NC(=O)NS(=O)(=O)Nc3cccnc3)c3ccccc3)C(=O)N2[C@H]1C(=O)O` [XI, D-6-[α-{3-(pyrid-3-ylaminosulfonyl)-ureido}-benzylcarbonamido]-penicillanic acid]: the MIC with Proteus mirabilis L 93 was 3 µg/mL (≈ 5.47 µM).
For the compound `Cc1cc(NS(=O)(=O)NC(=O)N[C@@H](C(=O)N[C@@H]2C(=O)N3[C@@H]2SC(C)(C)[C@@H]3C(=O)O)c2ccccc2)no1` [XII, D-6-[α-{3-(5-methylisoxazol-3-yl-aminosulfonyl)-ureido}-benzylcarbonamido]-penicillanic acid], the MIC with Proteus mirabilis L 93 stood at 1.5 µg/mL (≈ 2.71 µM).
Same read-out and setting: the same measure for `Cc1noc(NS(=O)(=O)NC(=O)N[C@@H](C(=O)N[C@@H]2C(=O)N3[C@@H]2SC(C)(C)[C@@H]3C(=O)O)c2ccccc2)c1C` [XIII, D-6-[α-{3-(3,4-dimethylisoxazol-5-yl-aminosulfonyl)ureido}-benzylcarbonamido]-penicillanic acid]: 0.75 µg/mL (≈ 1.32 µM); for `CC1(C)S[C@@H]2[C@H](NC(=O)[C@H](NC(=O)NS(=O)(=O)N3CCOCC3)c3ccccc3)C(=O)N2[C@H]1C(=O)O` [XIV, D-6-[α-{3-(morpholino-sulfonyl)-ureido}-benzylcarbonamido]-penicillanic acid]: below 0.75 µg/mL.
On to `CCOC(=O)NS(=O)(=O)N[C@@H](C(=O)N[C@@H]1C(=O)N2[C@@H]1SC(C)(C)[C@@H]2C(=O)O)c1ccccc1` [XIX, D-6-[α-(ethoxycarbonylaminosulfonylamino)-benzylcarbonamido]-penicillanic acid], for which, in the assay on Proteus mirabilis L 93, the MIC stood at 3 µg/mL (≈ 5.99 µM).
As to `CC1(C)S[C@@H]2[C@H](NC(=O)[C@H](NC(=O)NS(N)(=O)=O)c3ccccc3)C(=O)N2[C@H]1C(=O)O` [XVI, D-6-[α-{3-(aminosulfonyl)-ureido}-benzylcarbonamido]-penicillanic acid], the MIC in the assay with Proteus mirabilis L 93 worked out at 6 µg/mL (≈ 12.7 µM).
The same measure, in the same setting: the same measure for `CC1(C)S[C@@H]2[C@H](NC(=O)[C@H](NC(=O)NS(=O)(=O)O)c3ccccc3)C(=O)N2[C@H]1C(=O)O` [XVII, D-6-[α-{3-(sulfo)-ureido}-benzylcarbonamido]-penicillanic acid]: below 0.75 µg/mL; for `CC1(C)S[C@@H]2[C@H](NC(=O)[C@H](NS(N)(=O)=O)c3ccccc3)C(=O)N2[C@H]1C(=O)O` [XVIII, D-6-[α-(aminosulfonylamino)-benzylcarbonamido]-penicillanic acid]: 1.5 µg/mL (≈ 3.5 µM); for `CC(=NS(=O)(=O)N[C@@H](C(=O)N[C@@H]1C(=O)N2[C@@H]1SC(C)(C)[C@@H]2C(=O)O)c1ccccc1)N(C)C` [XXI, D-6-[α-{1-(dimethylamino)-ethylideneamino-sulfonamido}-benzylcarbonamido]-penicillanic acid]: 3 µg/mL (≈ 6.03 µM).
Take `CN1CCCC1=NS(=O)(=O)N[C@@H](C(=O)N[C@@H]1C(=O)N2[C@@H]1SC(C)(C)[C@@H]2C(=O)O)c1ccccc1` [XXIII, D-6-[α-{1-(methylpyrrolidin-2-ylidene)-amino-sulfonamido}-benzylcarbonamido] -penicillanic acid]: the MIC against Proteus mirabilis L 93 was found to be 3 µg/mL (≈ 5.89 µM).
The same measure, in the same setting: the same measure for `CC1(C)S[C@@H]2C(NC(=O)C(N)c3ccccc3)C(=O)N2[C@H]1C(=O)O` (stereo partly drawn) [ampicillin, 6-(α-aminophenylacetamido) penicillanic acid, reference compound]: 3 µg/mL (≈ 8.59 µM).
In the assay on Proteus mirabilis L93, `CC1(C)S[C@@H]2[C@H](NC(=O)C(C(=O)O)c3ccccc3)C(=O)N2[C@H]1C(=O)O` (stereo partly drawn) [carbenicillin, reference compound] gave an MIC of 0.3 µg/mL (≈ 0.793 µM).
For `CC(=O)OCC1=C(C(=O)O)N2C(=O)[C@@H](NC(=O)[C@H](N)c3ccccc3)[C@H]2SC1` [cephaloglycin, 7-(α-aminophenylacetamido) cephalosporanic acid, reference compound], in the assay with Proteus mirabilis L 93, the MIC is 3 µg/mL (≈ 7.4 µM).
The same measure, in the same setting: the result for `Cc1nnc(SCC2=C(C(=O)O)N3C(=O)[C@@H](NC(=O)Cn4cnnn4)[C@H]3SC2)s1` [cephazolin, reference compound] reads 1.5 µg/mL (≈ 3.3 µM).
